The supplement of paper PMC3334620
In all, about 33,000 sequences were measured (“E-score (-0.5 to 0.5)”: median about -0.054, highest 2% from about 0.35 on). The list shows a part of the results.

target: T1, Stb5 (UniProt P38699); assay: PBM E-score (8-mer binding enrichment) (E-score (-0.5 to 0.5)); higher = stronger / more preferred TF binding; most listed sequences are background and not binding sites; conditions: protein concentration: 200 nM; construct: GST-full length
T1 sequence: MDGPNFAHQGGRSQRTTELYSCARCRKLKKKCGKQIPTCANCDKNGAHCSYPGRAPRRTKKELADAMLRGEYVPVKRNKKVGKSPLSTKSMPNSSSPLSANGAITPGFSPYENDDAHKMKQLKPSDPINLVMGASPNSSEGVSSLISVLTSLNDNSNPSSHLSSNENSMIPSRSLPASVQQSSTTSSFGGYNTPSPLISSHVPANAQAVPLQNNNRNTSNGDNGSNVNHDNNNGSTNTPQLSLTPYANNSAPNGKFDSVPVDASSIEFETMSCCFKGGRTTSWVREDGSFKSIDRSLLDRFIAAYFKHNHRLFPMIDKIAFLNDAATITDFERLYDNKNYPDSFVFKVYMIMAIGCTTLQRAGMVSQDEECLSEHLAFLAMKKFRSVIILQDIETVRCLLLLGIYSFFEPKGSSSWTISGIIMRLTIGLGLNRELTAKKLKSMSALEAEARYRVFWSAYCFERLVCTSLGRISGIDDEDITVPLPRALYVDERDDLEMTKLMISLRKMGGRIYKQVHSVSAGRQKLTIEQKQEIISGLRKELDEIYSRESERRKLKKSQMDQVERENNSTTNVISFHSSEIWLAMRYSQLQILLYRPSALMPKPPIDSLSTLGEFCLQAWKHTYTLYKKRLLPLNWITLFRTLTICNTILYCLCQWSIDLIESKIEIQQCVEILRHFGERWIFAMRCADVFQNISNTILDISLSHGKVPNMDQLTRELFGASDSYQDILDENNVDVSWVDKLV
Procedure: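 Universal 'all 10-mer' protein binding microarrays (Agilent AMADID 015681) probed with GST-tagged S. cerevisiae TFs (full-length or DBD) made by in vitro transcription/translation (PURExpress), about 100-200 nM. Bound TF was detected with fluorescent anti-GST. Each ungapped 8-mer (which stands for itself and its reverse complement) is scored by the PBM enrichment score (E-score), a modified Wilcoxon-Mann-Whitney statistic from -0.5 to +0.5, computed with the Universal PBM Analysis Suite. Scale: above 0.35 generally sequence-specific binding.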

Sequence	PBM E-score
ACCACACG	-0.18
CATGGAGG	-0.242
CTAGCGCC	0.172
GGTCTAAC	0.0664
CCGAGTCG	0.168
TAACGGCA	0.22
AACCTGCG	0.05
ACACTCAC	-0.0181
ACTCTTAA	-0.0596
ACTCATGC	-0.117
CAGCCAAA	-0.131
CGCTTTCC	0.0771
AAGTGGTG	-0.099
CCGTAAGC	0.139
ACAAATCC	0.0856
GGGTCATA	-0.00196
AACACGGG	0.0484
GTGGTCGA	-0.254
GGCGGCTA	0.12
CCTCGCCA	-0.191
AGATCCTA	-0.266
AGACGCAC	0.0631
CCACGTGG	-0.282
CACCTTGA	0.0193
ACCCACGC	-0.155

Sequence	PBM E-score
TTCGAGAA	-0.055
CCACGTGC	-0.0774
GACTGGCC	-0.0285
GCATCAAA	-0.0923
AAGACTAC	-0.0698
CCCACTAC	-0.219
ATAGACTA	-0.232
ATCCAAGC	-0.165
CATCTACA	-0.188
AAGCAAGT	-0.123
CGAATGCC	0.0928
CCTCATCG	0.00811
GAGGTAGA	-0.0408
CTTTAGTC	0.107
ATGCCGCG	0.319
CTAGACTA	-0.136
CTTAAACA	0.161
CTAGGGGC	-0.243
GCCAGTAC	-0.0327
GACTGGAC	-0.142
ATCGAGGG	-0.142
ACTACTGG	-0.296
CGCAACCC	-0.11
CTGTCAGC	-0.0676
GTGGAAAC	-0.00304

Sequence	PBM E-score
CATAAACA	0.0561
ACAGGTCT	-0.254
CTAGGTTA	0.0388
GAGTACAC	-0.136
CGTTTAGC	0.244
AAATTGAG	-0.206
ATTAGCGG	0.24
ATAACCGC	0.323
ATCAGGCG	-0.104
AACCCTTG	-0.0666
AATGCACA	-0.0352
AGCTAATA	-0.149
CATCGGAA	0.145
GGATCACC	0.125
CTTAATTC	-0.0333
GACAGCGA	0.241
ACCTATTG	-0.141
GGAATCCC	0.0392
ATCACCCA	-0.146
GGTTATTA	0.163
GTACGACA	-0.115
AGCACCCG	0.153
GCGGCTCC	0.0658
ACGAATAT	-0.0846
CGCTTAGC	0.0735

Sequence	PBM E-score
CCGTGGCA	0.0411
AGCTCTAT	-0.111
AGGTAAAC	0.133
GAATCCAC	-0.133
CATATCCG	0.15
CGTGCAAG	0.0388
CAACGTGC	-0.0319
ATATAGCG	0.131
AGCACCAT	-0.0231
CTCCGTCC	0.322
AAAAGCAT	-0.0942
AATTCCGC	0.262
GTGCGGAA	0.017
GATTCAAC	-0.0115
ATGACCAC	-0.215
GGACCATA	0.0335
CAGTCTGC	-0.146
AGGGACAC	-0.174
GGGGCTTA	0.271
ACTTCACG	-0.161
AGCGACGC	-0.0666
ACGATAGC	0.0317
ACTTTAGA	-0.109
ACGCATTC	-0.0675
CACAGATA	-0.271

Sequence	PBM E-score
CGTTGATC	-0.0579
AAAGATGT	-0.0992
CCTAGCCC	-0.0748
GAGGAGCC	-0.161
CACAGGCA	-0.251
AACGGAGA	0.247
ATATCGCG	0.0512
ACTCCAGG	0.0251
GCTAGTAA	-0.0348
AGTGTATA	-0.177
CAATCTAA	0.00448
GAGTTCGC	0.0473
AGCGAGCT	-0.079
CGCGTGAG	-0.025
AGGTTCAC	-0.164
GACCGGTA	0.231
AAACTACT	-0.106
AACGGCTC	0.0467
AGCTGTCA	-0.27
CTCCACTC	-0.151
CGCCTTAG	0.165
AACGCCCA	-0.0339
CACAGGGA	0.0345
CGTTCGGA	0.243
CAGAAACC	-0.15

Sequence	PBM E-score
GGCAGTCA	-0.11
CAAGGCTG	-0.26
CGTGCGTC	0.171
CATTCACC	0.17
CGGCCGGC	0.284
GGTAACTA	0.293
AACGTACA	-0.109
CCTAAAAG	-0.127
CAGGAAAG	-0.165
ACGCGTGA	-0.138
ACTGTGGC	-0.254
CAAAAGCG	0.195
ACAAAACT	-0.0319
GGAATTCA	-0.0427
CACGGGGG	0.117
TGACCTCA	-0.0882
CAATGCTG	-0.125
GGAGTACA	0.0255
CTTGGCAA	-0.319
CAGATCTG	-0.333
AATTAAGT	0.0344
AATTCAGA	-0.0824
CGACAAAC	0.052
ACTGGAGC	0.00185
CGTCGTAC	0.0941

Sequence	PBM E-score
GGCACGAA	0.0383
CTGATCAA	-0.0915
CATCGGAG	0.237
CCAGCAGA	-0.203
CTGCAAGC	-0.173
GAATAGAC	-0.114
GTTGATCA	-0.14
CCAAAAGG	-0.31
CCTCAATC	-0.0673
ACATAATA	0.0339
GTGGGTGA	-0.0527
GAAACCGA	0.149
ACTGATGA	-0.191
AATCTAGG	-0.16
AGCGTGTA	-0.0367
ACAGTGTG	-0.278
AAGGAGCT	-0.0779
CTACATGC	-0.179
GTCGTATA	-0.0424
CCAGACGA	-0.199
ATCTGGCA	-0.09
ACGGCAAG	-0.121
